In the supplement of paper PMC11125491:
± gives the standard deviation of the averaged measurements. Growth of baker's yeast expressing single-residue variants of Pneumocystis jirovecii dihydrofolate reductase in 8.8 or 44 µM methotrexate (about 75% and 90% inhibition of the wild type). Selection coefficient per generation; 0 = like wild type, above 0 = less sensitive, below 0 = more sensitive or loss of function. No active / inactive call per row; the paper calls resistant above 0.220 (8.8 µM) or 0.243 (44 µM) together with a significance test. At 44 µM about 15% of codons end with one read or none, so the lowest values are floors (replicate rank correlation 0.74; 0.94 at 8.8 µM).

B1: UniProt A0EPZ9; numbered along this chain (parent)
chain: MDWQKSLTLIVALTLSRGIGLKNDLPWKLKSDMMFFSRVTSGLLVTRSTGQMNVVLMGRKTWESLPAHSRPLKNRINVVISRQEVLDLGGGAYHARSLDDALALLSQIYDSTSKIQLNRVFVIGGGELCKAAMEHSRLNRIIATVIHNEVDCDVFFPIDFRSSQSCLPWRKQDHSVLEAWVGSKVPQGKINENGFIYEFEMWIRDI

Variants of: B1
Test: selection coefficient against synonymous wild-type codons (log2 per generation); higher = faster growth than wild type
Details: with Saccharomyces cerevisiae carrying the variant on a plasmid
Method: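 Pooled growth of yeast carrying single-residue variants of P. jirovecii dihydrofolate reductase (own DFR1 gene intact), two passages at 30 °C, three cultures, sequenced before and after. Codons with under 15 starting reads are left out; codons of one change are averaged.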

Variant | selection coefficient against synonymous wild-type codons (log2) (methotrexate 8.8 µM) | selection coefficient against synonymous wild-type codons (log2) (methotrexate 44 µM)
V120H | -0.739 ± 0.023 | -0.235 ± 0.063
V120A | -0.368 ± 0.11 | -0.185 ± 0.11
V120M | -0.168 ± 0.015 | -0.17 ± 0.14
V120F | -0.347 ± 0.16 | -0.15 ± 0.035
V120G | -0.531 ± 0.098 | -0.0988 ± 0.34
V120L | -0.132 ± 0.036 | -0.155 ± 0.13
V120K | -0.844 ± 0.016 | -0.339 ± 0.065
V120E | -0.777 ± 0.035 | -0.273 ± 0.047
V120T | -0.538 ± 0.05 | -0.296 ± 0.027
V120S | -0.715 ± 0.1 | -0.264 ± 0.089
V120Q | -0.801 ± 0.032 | -0.297 ± 0.043
V120C | -0.262 ± 0.053 | -0.218 ± 0.14
S113T | -0.101 ± 0.07 | -0.0384 ± 0.094
S113K | -0.0488 ± 0.03 | -0.131 ± 0.2
S113Q | -0.0737 ± 0.065 | 0.0639 ± 0.027
S113Y | -0.267 ± 0.26 | 0.288 ± 0.63
S113M | -0.248 ± 0.0079 | -0.173 ± 0.058
S113F | -0.357 ± 0.016 | -0.27 ± 0.12
S113G | -0.0749 ± 0.031 | -0.043 ± 0.096
S113W | -0.523 ± 0.035 | -0.358 ± 0.31
S113C | -0.174 ± 0.015 | -0.129 ± 0.015
S113V | -0.358 ± 0.078 | -0.435 ± 0.086
S113P | -0.0594 ± 0.083 | 0.116 ± 0.13
S113L | -0.399 ± 0.091 | -0.136 ± 0.099

Variant | selection coefficient against synonymous wild-type codons (log2) (methotrexate 8.8 µM) | selection coefficient against synonymous wild-type codons (log2) (methotrexate 44 µM)
S113D | -0.0175 ± 0.074 | 0.0566 ± 0.081
S113E | -0.0347 ± 0.051 | -0.0334 ± 0.085
S113R | -0.21 ± 0.1 | -0.192 ± 0.11
S113A | -0.117 ± 0.033 | -0.13 ± 0.14
G124M | -0.63 ± 0.14 | -0.295 ± 0.021
G124W | -0.219 ± 0.032 | 0.307 ± 0.08
G124Y | -0.408 ± 0.046 | 0.0714 ± 0.073
G124A | 0.737 ± 0.043 | 1.59 ± 0.046
G124Q | -0.844 ± 0.11 | 0.0148 ± 0.59
G124T | -0.0426 ± 0.062 | 0.483 ± 0.068
G124E | -0.477 ± 0.071 | 0.246 ± 0.015
G124C | 0.255 ± 0.025 | 0.834 ± 0.052
G124I | -0.627 ± 0.12 | -0.0933 ± 0.085
G124D | -0.355 ± 0.078 | 0.16 ± 0.04
G124P | 0.242 ± 0.024 | 0.812 ± 0.044
G124K | -0.628 ± 0.13 | -0.0327 ± 0.13
G124R | -0.532 ± 0.18 | 0.0121 ± 0.19
G124H | -0.593 ± 0.13 | -0.107 ± 0.1
G124L | -0.59 ± 0.18 | -0.156 ± 0.24
G124N | -0.631 ± 0.12 | -0.0828 ± 0.07
G124S | 0.856 ± 0.042 | 1.43 ± 0.05
G124V | -0.445 ± 0.066 | 0.231 ± 0.07
K114S | -0.0451 ± 0.022 | 0.0355 ± 0.094
K114M | -0.188 ± 0.024 | -0.095 ± 0.034

Variant | selection coefficient against synonymous wild-type codons (log2) (methotrexate 8.8 µM) | selection coefficient against synonymous wild-type codons (log2) (methotrexate 44 µM)
K114Q | -0.0463 ± 0.031 | -0.0623 ± 0.18
K114P | 0.0156 ± 0.013 | 0.0666 ± 0.15
K114E | 0.0166 ± 0.032 | 0.0728 ± 0.05
K114C | -0.251 ± 0.015 | 0.127 ± 0.17
K114T | -0.106 ± 0.12 | 0.0321 ± 0.17
K114D | 0.0276 ± 0.12 | 0.0125 ± 0.16
K114L | -0.169 ± 0.052 | -0.114 ± 0.13
K114N | 0.00334 ± 0.068 | 0.182 ± 0.05
K114G | 0.0553 ± 0.033 | 0.121 ± 0.014
K114R | -0.138 ± 0.04 | -0.0393 ± 0.18
K114V | -0.198 ± 0.075 | -0.213 ± 0.072
K114A | -0.062 ± 0.051 | -0.0209 ± 0.17
L117T | -0.122 ± 0.0098 | -0.0437 ± 0.084
L117M | -0.149 ± 0.011 | -0.261 ± 0.15
L117A | -0.126 ± 0.021 | -0.108 ± 0.088
L117N | -0.146 ± 0.045 | -0.106 ± 0.055
L117D | 0.0324 ± 0.046 | 0.0937 ± 0.012
L117W | -0.0677 ± 0.035 | 0.27 ± 0.36
L117K | -0.277 ± 0.047 | -0.181 ± 0.071
L117I | 0.166 ± 0.047 | 0.219 ± 0.047
L117P | 0.0863 ± 0.013 | 0.104 ± 0.097
L117G | -0.16 ± 0.016 | -0.149 ± 0.12
L117F | -0.00194 ± 0.037 | 0.0779 ± 0.14
L117E | -0.111 ± 0.063 | -0.165 ± 0.037

Variant | selection coefficient against synonymous wild-type codons (log2) (methotrexate 8.8 µM) | selection coefficient against synonymous wild-type codons (log2) (methotrexate 44 µM)
L117V | 0.00983 ± 0.021 | 0.025 ± 0.056
L117Q | -0.284 ± 0.054 | -0.213 ± 0.066
L117C | -0.128 ± 0.048 | -0.147 ± 0.14
L117S | -0.137 ± 0.054 | -0.0917 ± 0.073
L117R | -0.35 ± 0.093 | -0.232 ± 0.11
L117Y | -0.232 ± 0.023 | -0.117 ± 0.058
V122H | -0.549 ± 0.094 | -0.0906 ± 0.026
V122E | -0.665 ± 0.023 | -0.162 ± 0.055
V122P | -0.692 ± 0.14 | -0.245 ± 0.048
V122D | -0.276 ± 0.23 | 0.0173 ± 0.1
V122R | -0.671 ± 0.1 | -0.168 ± 0.1
V122F | -0.359 ± 0.041 | -0.168 ± 0.021
V122L | -0.0651 ± 0.044 | -0.0258 ± 0.089
V122C | -0.337 ± 0.067 | -0.148 ± 0.11
V122T | -0.679 ± 0.14 | -0.3 ± 0.064
V122N | -0.721 ± 0.14 | -0.285 ± 0.046
V122S | -0.714 ± 0.059 | -0.24 ± 0.058
V122I | 0.00773 ± 0.017 | 0.119 ± 0.14
V122Q | -0.694 ± 0.12 | -0.335 ± 0.078
V122G | -0.769 ± 0.098 | -0.299 ± 0.038
V122W | -0.671 ± 0.15 | -0.342 ± 0.05
V122K | -0.773 ± 0.023 | -0.313 ± 0.005
V122A | -0.528 ± 0.15 | -0.155 ± 0.1
V122M | -0.272 ± 0.092 | -0.0738 ± 0.11

Variant | selection coefficient against synonymous wild-type codons (log2) (methotrexate 8.8 µM) | selection coefficient against synonymous wild-type codons (log2) (methotrexate 44 µM)
V122Y | -0.627 ± 0.065 | -0.329 ± 0.14
R119T | 0.0864 ± 0.028 | 0.0369 ± 0.041
R119W | -0.327 ± 0.05 | -0.226 ± 0.1
R119Q | 0.136 ± 0.04 | 0.134 ± 0.039
R119L | -0.381 ± 0.11 | -0.34 ± 0.1
R119A | -0.0226 ± 0.029 | 0.0439 ± 0.11
R119K | 0.0888 ± 0.042 | 0.154 ± 0.13
R119H | 0.137 ± 0.0067 | 0.234 ± 0.13
R119I | -0.514 ± 0.071 | -0.268 ± 0.047
R119C | -0.0832 ± 0.048 | 0.0548 ± 0.17
R119Y | -0.0121 ± 0.0059 | 0.12 ± 0.14
R119E | 0.188 ± 0.042 | 0.21 ± 0.08
R119V | -0.414 ± 0.084 | -0.304 ± 0.072
R119M | -0.112 ± 0.0077 | -0.207 ± 0.11
R119G | 0.0529 ± 0.024 | 0.106 ± 0.07
R119F | -0.234 ± 0.05 | -0.157 ± 0.12
R119N | 0.236 ± 0.013 | 0.332 ± 0.073
R119D | 0.103 ± 0.031 | 0.169 ± 0.076
R119P | -0.222 ± 0.023 | -0.0173 ± 0.16
R119S | 0.123 ± 0.018 | 0.174 ± 0.073
